The source of these data is article PMC12136788.

The list shows a part of the results.

The labels stand for the following.
T1: UNK ZnF1-3 (human, UniProt Q9C0B0 31-174)
T1 sequence: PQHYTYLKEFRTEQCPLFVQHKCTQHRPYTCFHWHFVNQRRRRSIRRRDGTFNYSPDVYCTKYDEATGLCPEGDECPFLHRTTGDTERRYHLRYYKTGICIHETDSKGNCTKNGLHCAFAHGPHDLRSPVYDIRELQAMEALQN

B1: chr6:119226881:119226882:+_ENSG00000111875_ENST00000229595|hu_mus|FALSE|FALSE (ssRNA)
RNA: GGGAGUUCUACAGUCCGACGAUCUGGGUUUUCCCUUAAUUCUGUUUCAGUGUAUUCAUUAUUUACAUAGUAGCCAACUCUAAUAAAUUCUUGACCUCGGUAGGUGCAAGUAAUCAGAACAACUGUUACCCCCACUGCAUCUGCCAACAGAGGAUUGAGCAUCA
B2: 21032951_21033071_225_5pUTR_ENSG00000101782_ENST00000339486|human|control|control (ssRNA)
RNA: GGGAGUUCUACAGUCCGACGAUCGGCAGGGCAGGGCAAGAACUGGGUGUGGCUUCCUUUGGCCCAGGCUCUGCCCUGUCCCCGCACUGCCAUCUCCUUCUUUCCUCCUUGGCACCCCAAAAAUUGCCGCUGGAUCUAAACUAGCAACAGAGGAUUGAGCAUCA
B3: 44323887_44324007_894_CDS_ENSG00000160194_ENST00000354250|human|control|control (ssRNA)
RNA: GGGAGUUCUACAGUCCGACGAUCUGUGUGGACAGGUAAGGGUCCUUUAACUUCAAAUGGCUUUUGGCUUUCUUUAUCUAUUUCAUUUAAUCUAAAUGUUUUCUGCAAUUGUUUUUCCUUUAAACUUUGCUUCAAAAACUCUUCCAACAGAGGAUUGAGCAUCA
B4: 84052462_84056824_1226_CDS_ENSMUSG00000020532_ENSMUST00000020843|mouse|control|control (ssRNA)
RNA: GGGAGUUCUACAGUCCGACGAUCCCCAGCACUCACAUAACCAACCAUUUUGGCAAGUUUCACUGCACACUGUUCCAUGUGUUCAAAUACUGCUGGGGUAGCAAUCGCAGCAGGAGCUUCUUCAAUGAUCUUCUGAUGCCUGCGCAACAGAGGAUUGAGCAUCA
B5: chr2:198267338:198267339:-_ENSG00000115524_ENST00000335508|hu_hu|FALSE|FALSE (ssRNA)
RNA: GGGAGUUCUACAGUCCGACGAUCAAUGAUUUCAACUAAACUUCUAAGAUGUGGCAAGAUGGCACAGCCCAUAAGAAUAGCUAUCUGUUGUACAAUCUUAAUACCAGUGUGUCUCGCUUGCCAGGACUUCUUGCUUUUGCACACCAACAGAGGAUUGAGCAUCA
B6: 33730633_33731758_2336_CDS_ENSMUSG00000075254_ENSMUST00000152782|mouse|control|control (ssRNA)
RNA: GGGAGUUCUACAGUCCGACGAUCGCAGGUGAACGAUCCCUGAGUAUUGUUGCACGUGGCUAGGGGAGGACAGGGGCUGGAGAGACAUUCGUUCACAUCCACACUGCAGUUCUCCCCCUGCCAGGCAGGCGGGCACACACAUCGCAACAGAGGAUUGAGCAUCA
B7: chr2:42510052:42510053:+_ENSG00000143924_ENST00000318522|hu_hu|FALSE|FALSE (ssRNA)
RNA: GGGAGUUCUACAGUCCGACGAUCACAGUCUGUAUGGCCCAGGUAGUGUCGCUGAGUUCUCUCCUCAUAAUUAAAUAGUACUACUACUGAUGCAAUGAAAUAAACUAUUUUCCCGGUCGGAAGAAGGUAAACAUUAGCUCUACACAACAGAGGAUUGAGCAUCA
B8: 104627916_104628036_2582_CDS_ENSMUSG00000074994_ENSMUST00000117237|mouse|control|control (ssRNA)
RNA: GGGAGUUCUACAGUCCGACGAUCUAAAAUAUUUCUUUCAUCACUGAGAAGCAUUGCCUCUGAGAAGCAUAUUGAUCCAAGAGAAACAAACUGAUUCUUUGAGUCAUGUGGAUUGGCUUCACUGAAGGGGCCCUUUGUUGUUAGCAACAGAGGAUUGAGCAUCA
B9: chr12:89743083:89743084:-_ENSG00000139318_ENST00000308385|hu_hu|FALSE|FALSE (ssRNA)
RNA: GGGAGUUCUACAGUCCGACGAUCCUUUCACGUAGAUUGCAGAGAGUCCACCUGGUAUACAUUCUGGUUGGAAGGGGUGGUAAAAUACAGCUGCUGUGCUGGAACCCUGUUGUCACAUGGGCUGCUGAGUCCCAGCGUCCUCUCCAACAGAGGAUUGAGCAUCA
B10: chr7:100804371:100804372:+_ENSG00000106367_ENST00000337619|hu_hu|FALSE|FALSE (ssRNA)
RNA: GGGAGUUCUACAGUCCGACGAUCCUUGCCCUUCCCCCAACCCUUCCUUCCCUCAAAGUGGCAAGGUUAGAAAAAAAUUAACUAUGUUGUUCCUCCCUGGCACUGGAUAAAGGCCCCACUGCAGCCAAGGAGAAAGAGGGGGGUCAACAGAGGAUUGAGCAUCA
B11: chr1:111986530:111986531:-_ENSG00000116455_ENST00000235090|hu_mus|FALSE|FALSE (ssRNA)
RNA: GGGAGUUCUACAGUCCGACGAUCAUUGCAGGCCAUCUGUGAUGCCGGCUUGGGACAGCGGGUAUCCCAGAGCAAAAUUCUACUGUCCUCACUACAUGAAAGAAACACAGAGUCUUUGUGGGGAGAGGCAGCAACACAGGUAACCAACAGAGGAUUGAGCAUCA
B12: chr2:148701126:148701127:-_ENSMUSG00000027447_ENSMUST00000028938|mus_hu|FALSE|FALSE (ssRNA)
RNA: GGGAGUUCUACAGUCCGACGAUCGGACGCGGGGAGUGGGGCGCAGGCGAGAGGCUGGAGCUAGAUAGAGAGGACCCGCUGCGAUACCGAGGCGAGGCCGUGAGCCCCGCGAGGCCGGCGACUGCGGUUUUAUCCCUUCCGGCCCAACAGAGGAUUGAGCAUCA
B13: 141073120_141077993_660_3pUTR_ENSMUSG00000040761_ENSMUST00000078886|mouse|control|control (ssRNA)
RNA: GGGAGUUCUACAGUCCGACGAUCGGUCUCUAUAGUAAUCCUGAUCGUAAUGUCUUGUCCGAUCAAAUGCUCCUGUCCCCCGUUCAUGGUGUCCAUAGGCACUAUGUUCAUAAGCACGCUCCCUGUUAUCUGAAGCCCCAUCGACAACAGAGGAUUGAGCAUCA
B14: chr1:66463027:66463028:+_ENSMUSG00000015222_ENSMUST00000114013|mus_mus|FALSE|FALSE (ssRNA)
RNA: GGGAGUUCUACAGUCCGACGAUCUUUUCUUUCAGGAGUGGAAAUUCUGCCUCUCCCGGUUUUAAAAGGCUUUUCUUUUCUAUGUUUCUCGAGAGACGGUCUCCGAGCAUCCUUCUCAGCUCUCUCCUCUUUAGGAAUAGUUUCCAACAGAGGAUUGAGCAUCA
B15: chr5:71593506:71593507:-_ENSG00000113048_ENST00000457646|hu_hu|motif|central (ssRNA)
RNA: GGGAGUUCUACAGUCCGACGAUCGAUCUAUCUCUUCCCGAGAGGAAAUGUUGUCUAUAAGCCGUGAUAUUGUUAAAGAACGGACAGGCAACUUUCUCUCAAAUGUUUUAUCCAUUAAAGAUGCAAGAUCAGCAAGACAGUAAUCAACAGAGGAUUGAGCAUCA
B16: chr14:73694766:73694767:-_ENSMUSG00000022105_ENSMUST00000022701|mus_hu|FALSE|FALSE (ssRNA)
RNA: GGGAGUUCUACAGUCCGACGAUCUUCAGUAGAUAUCGAACUGCUGGGUUGUGUCAAAUAUAUAAGUUCACAUGUCCUUUCCAAUUUGCUGAAGAGUGCAAACAAUACAUCAUACUUCUUCAACAGUCUUGACAUAGCAUUAUCCAACAGAGGAUUGAGCAUCA
B17: chr16:9197081:9197082:+_ENSG00000182831_ENST00000327827|perfect_dup|motif|central (ssRNA)
RNA: GGGAGUUCUACAGUCCGACGAUCAAGACCAUGCAGAGCUAUGGCUUCCCGGAAGGGUUGCAAAUCAGUCUCUACAGAUGAGCGGGUUUCCGUUGAAGUAGCUCGGUUAGGGGACACUACAGUCAGUCUUGGGGGAGCUCUAGACAACAGAGGAUUGAGCAUCA
B18: 32537018_32537138_208_3pUTR_ENSMUSG00000024381_ENSMUST00000025239|mouse|control|control (ssRNA)
RNA: GGGAGUUCUACAGUCCGACGAUCCUGCGCUCGGGUCAGCUUCUUCUGUACGUUGCUGGCGAUCUUCCCCGCCGUCACCCCCUUGCUCCCCAUCUCUGCCAUCCUGGCGCCGGCCUCGCCCGAAGCGAGCGCGGAUAAUGGCGCCAACAGAGGAUUGAGCAUCA
B19: chrX:72692514:72692515:+_ENSMUSG00000031201_ENSMUST00000033544|mus_mus|FALSE|FALSE (ssRNA)
RNA: GGGAGUUCUACAGUCCGACGAUCUACUGCAGAUUCAAGGCAUACUUUCCCAAUAGUGAUAUGAGGUACAAUAUGGAUUGGGAUUUCAAUUCUCUCAUACUCUGAGCUUUUUUGGGCUUGUAUGGAUUGGAAGCAAGUAUAGAGCAACAGAGGAUUGAGCAUCA
B20: chr4:95202638:95202639:+_ENSG00000163104_ENST00000354268|hu_hu|motif|central (ssRNA)
RNA: GGGAGUUCUACAGUCCGACGAUCUAAUAGAACCUCUAAGAUAUCCAGCAUCAUGGUAAAUUGGCUAAAUAACACAACUCGGUCACCCUUCUGUUUCAAUUCAGACAAGAUGCAUCCUAAAACUCGAAAUUUUCCAGAAUCUAACAACAGAGGAUUGAGCAUCA
B21: chr9:135205225:135205226:-_ENSG00000107290_ENST00000224140|hu_hu|motif|central (ssRNA)
RNA: GGGAGUUCUACAGUCCGACGAUCUGCAGAAGUCAGAUCCACAAAAGUGUUACAUGGAGGUGCUUUGAAUUUUAUGUUUCGGAUAAUUUGCUUUAAGCAACUUUGUAGCUCAUGGGUUUCCUGACUAGUCAACUGCCAACCUAGCAACAGAGGAUUGAGCAUCA
B22: 71194627_71194747_4563_CDS_ENSMUSG00000031386_ENSMUST00000033761|mouse|control|control (ssRNA)
RNA: GGGAGUUCUACAGUCCGACGAUCCUGUGUUGGGAAAGAGGCCAGCAAUGUGGAACCAGCCUGGGAGGUGACAGUGGGCACUGCUACCACCUCUAAGCCCGACUCCAGGGUUCCAUGAGAGGAAGUAGCAUCAGGAAUCAGGGUCAACAGAGGAUUGAGCAUCA

The target in this assay is T1, UNK ZnF1-3. Put plainly: nsRBNS (natural sequence RNA bind-n-seq); RBNS binding buffer (assumed for nsRBNS): 25 mM Tris pH 7.5, 150 mM KCl, 3 mM MgCl2, 0.01% Triton X-100, 500 ug/ml BSA, 20 U/ml SUPERase-In, 4 C; UNK is unkempt and MSI1 is Musashi-1; names of the RNAs are library labels; protein concentration not given here; high values mean tight binding.
Molecule B1 gave a binding signal of 0.875 enrichment R. Then B2, with 1.03 enrichment R; and B3, with 0.377 enrichment R; and B4, with 0.711 enrichment R. Molecule B5 displayed a binding signal of 0.612 enrichment R. Molecule B6 registered a binding signal of 0.575 enrichment R.

In turn, B7 registered a binding signal of 1.16 enrichment R.

Molecule B8 came in with a binding signal of 1.01 enrichment R. B9 gave a binding signal of 0.91 enrichment R. Then B10, with 1.86 enrichment R; and B11, with 1.34 enrichment R.

B12 gave a binding signal of 0.894 enrichment R. Then B13, with 0.795 enrichment R; and B14, with 0.436 enrichment R. Under B15 stands 0.957 enrichment R; under B16, 0.611 enrichment R. Under B17 stands 2.27 enrichment R. The molecule B18 yielded a binding signal of 0.717 enrichment R. B19: the binding signal is 1.62 enrichment R.

On to B20, for which the binding signal came out at 1.21 enrichment R. For the molecule B21, the binding signal stood at 1.24 enrichment R. B22 had a binding signal of 1.29 enrichment R.
